According to the supplement of paper PMC4604168 (melanoma cell lines):
This is one part of the list. Most values come without repeats; read them as rough.
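Further: cells treated in 1,536-well plates, then fixed and DAPI-stained, with nuclei counted from automated high-throughput microscope images.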

The compounds below were run on WM451Lu (assay: cell count relative to DMSO control; melanoma cells; higher = more viable cells). Settings: library dose: standard library concentration; 72 h.
In the case of `NC(=O)c1ccc(N(C(N)=O)c2c(F)cccc2F)nc1-c1ccc(F)cc1F` + C=CCn1c(=O)c2cnc(Nc3ccc(N4CCN(C)CC4)cc3)nc2n1-c1cccc(C(C)(C)O)n1 [MK1775] (first compound 2 µM, partner dose 0.1 µM), the cell count is reported as 81.3%. Work on `Cc1ccc(NC(=O)c2cccc(N(C)C)c2)cc1NC(=O)c1ccc(O)cc1` + OCCn1cc(-c2cnc3nnn(Cc4ccc5ncccc5c4)c3n2)cn1 [PF04217903] (first compound 10 µM, partner dose 5 µM) yielded a cell count of 104%. For `Cc1ccc(NC(=O)c2cccc(N(C)C)c2)cc1NC(=O)c1ccc(O)cc1` + COc1cc2c(Oc3ccc4[nH]c(C)cc4c3F)ncnc2cc1OCCCN1CCCC1 [cediranib] (first compound 10 µM, partner dose 2 µM), the cell count was 112%. `NC(=O)c1ccc(N(C(N)=O)c2c(F)cccc2F)nc1-c1ccc(F)cc1F` + COCC[n+]1c2c(n(Cc3cnccn3)c1C)C(=O)c1ccccc1C2=O [YM155] (first compound 2 µM, partner dose 0.002 µM) gave a cell count of 33%. `CCCCCCCCc1ccc(CCC(N)(CO)CO)cc1` [fingolimod] + O=C(Nc1cccc(Cl)c1)Nc1ncc(CCNc2ncnc3ccsc23)s1 [SNS314] (first compound 10 µM, partner dose 0.004 µM) gave a cell count of 17.6%. With `CN(NC(=O)CC(=O)NN(C)C(=S)c1ccccc1)C(=S)c1ccccc1` + N#Cc1c(O)c2c(-c3ccc(-c4ccccc4O)cc3)csc2[nH]c1=O [A769662] (first compound 0.03 µM, partner dose 10 µM) the cell count was 83.4%. In the case of `CC(C)(C)c1cnc(CSc2cnc(NC(=O)C3CCNCC3)s2)o1` + CN(C)S(=O)(=O)c1ccc2c(c1)/C(=C/c1cc3c([nH]1)CCCC3)C(=O)N2 [SU6656] (first compound 0.05 µM, partner dose 2 µM), the cell count is reported as 39.7%. For `Cc1ccc(NC(=O)c2cccc(N(C)C)c2)cc1NC(=O)c1ccc(O)cc1` + Oc1cc(-c2nc(-c3ccccc3)[nH]c2-c2ccncc2)ccc1Cl [L779450] (first compound 10 µM, partner dose 1 µM), the cell count was 68%. `NC(=O)c1ccc(N(C(N)=O)c2c(F)cccc2F)nc1-c1ccc(F)cc1F` + COc1cc(Nc2ncc(F)c(Nc3ccc4c(n3)NC(=O)C(C)(C)O4)n2)cc(OC)c1OC [Tamatinib] (first compound 2 µM, partner dose 2 µM) showed a cell count of 71.6%. `NC(=O)c1ccc(N(C(N)=O)c2c(F)cccc2F)nc1-c1ccc(F)cc1F` + CCc1ccc(CCOc2ccc(CC3SC(=O)NC3=O)cc2)nc1 [pioglitazone] (first compound 2 µM, partner dose 10 µM) showed a cell count of 82.1%. For `CCCCCCCCc1ccc(CCC(N)(CO)CO)cc1` [fingolimod] + CO[C@@H]1[C@H](N(C)C(=O)c2ccccc2)C[C@H]2O[C@]1(C)n1c3ccccc3c3c4c(c5c6ccccc6n2c5c31)C(=O)NC4 [Midostaurin] (first compound 10 µM, partner dose 0.4 µM), the cell count was 10%. `CCCCCCCCc1ccc(CCC(N)(CO)CO)cc1` [fingolimod] + COc1cc(N2CCC(N3CCN(C)CC3)CC2)ccc1Nc1ncc(Cl)c(Nc2ccccc2S(=O)(=O)C(C)C)n1 [NVP-TAE684] (first compound 10 µM, partner dose 0.4 µM) showed a cell count of 26.8%. With `Cc1ccc(NC(=O)c2cccc(N(C)C)c2)cc1NC(=O)c1ccc(O)cc1` + Cn1cncc1[C@@](N)(c1ccc(Cl)cc1)c1ccc2c(c1)c(-c1cccc(Cl)c1)cc(=O)n2C [tipifarnib] (first compound 10 µM, partner dose 0.05 µM) the cell count was 80.8%. With `CCCCCCCCc1ccc(CCC(N)(CO)CO)cc1` [fingolimod] + CN(NC(=O)CC(=O)NN(C)C(=S)c1ccccc1)C(=S)c1ccccc1 [STA4783] (first compound 10 µM, partner dose 0.03 µM) the cell count was 8.55%. `CC(C)(C)c1cnc(CSc2cnc(NC(=O)C3CCNCC3)s2)o1` + COc1cc2ncnc(Nc3ccc(Oc4ccccc4)cc3)c2cc1OC [SrcI1] (first compound 0.05 µM, partner dose 10 µM) was tested, and the cell count was 60.1%. `CC(C)(C)c1cnc(CSc2cnc(NC(=O)C3CCNCC3)s2)o1` + O=S(=O)(c1ccccc1)N(CC(F)(F)F)c1ccc(C(O)(C(F)(F)F)C(F)(F)F)cc1 [T0901317] (first compound 0.05 µM, partner dose 7 µM) gave a cell count of 56.1%. Work on `NC(=O)c1ccc(N(C(N)=O)c2c(F)cccc2F)nc1-c1ccc(F)cc1F` + CC(C)(C)c1cnc(CSc2cnc(NC(=O)C3CCNCC3)s2)o1 [SNS-032] (first compound 2 µM, partner dose 0.05 µM) yielded a cell count of 79.3%. Compound `CC(C)(C)c1cnc(CSc2cnc(NC(=O)C3CCNCC3)s2)o1` + Cn1cncc1[C@@](N)(c1ccc(Cl)cc1)c1ccc2c(c1)c(-c1cccc(Cl)c1)cc(=O)n2C [tipifarnib] (first compound 0.05 µM, partner dose 0.05 µM) has a cell count of 59.2%. In the case of `CC(C)(C)c1cnc(CSc2cnc(NC(=O)C3CCNCC3)s2)o1` + O=C(Nc1cccc(Cl)c1)Nc1ncc(CCNc2ncnc3ccsc23)s1 [SNS314] (first compound 0.05 µM, partner dose 0.004 µM), the cell count is reported as 35.2%. `NC(=O)c1ccc(N(C(N)=O)c2c(F)cccc2F)nc1-c1ccc(F)cc1F` + O=C(CCCCCCC(=O)Nc1ccccc1)NO [vorinostat] (first compound 2 µM, partner dose 0.4 µM) gave a cell count of 107%. `Cc1ccc(NC(=O)c2cccc(N(C)C)c2)cc1NC(=O)c1ccc(O)cc1` + O=C(O)c1ccc(-c2c[nH]c3ncc(-c4ccccc4)cc23)cc1C1CCCC1 [GSK650394] (first compound 10 µM, partner dose 0.8 µM) showed a cell count of 106%. Work on `NC(=O)c1ccc(N(C(N)=O)c2c(F)cccc2F)nc1-c1ccc(F)cc1F` + NCC(=O)Nc1ccc(-n2nc(C(F)(F)F)cc2-c2ccc3c(ccc4ccccc43)c2)cc1 [OSU03012] (first compound 2 µM, partner dose 5 µM) yielded a cell count of 84.4%. `COc1cc2c(Oc3ccc4[nH]c(C)cc4c3F)ncnc2cc1OCCCN1CCCC1` [cediranib] + O=c1cc(-c2cccc3c2Sc2ccccc2S3)oc(N2CCOCC2)c1 [KU55933] (first compound 2 µM, partner dose 5 µM) gave a cell count of 87.4%. `NC(=O)c1ccc(N(C(N)=O)c2c(F)cccc2F)nc1-c1ccc(F)cc1F` + Oc1nc(-c2ccc(C(F)(F)F)cc2)nc2c1CSCC2 [XAV939] (first compound 2 µM, partner dose 10 µM) gave a cell count of 88.8%. With `CCCCCCCCc1ccc(CCC(N)(CO)CO)cc1` [fingolimod] + COc1ccc(COc2ccc(Cc3cnc(N)nc3N)cc2OC)cc1 [GW2580] (first compound 10 µM, partner dose 5 µM) the cell count was 24.5%. Compound `COc1cc2c(Oc3ccc4[nH]c(C)cc4c3F)ncnc2cc1OCCCN1CCCC1` [cediranib] + c1cc(-c2cnn3cc(-c4ccc(OCCN5CCCCC5)cc4)cnc23)ccn1 [Dorsomorphin] (first compound 2 µM, partner dose 2 µM) has a cell count of 89.5%. Compound `CCCCCCCCc1ccc(CCC(N)(CO)CO)cc1` [fingolimod] + O=c1cc(-c2cccc3c2Sc2ccccc2S3)oc(N2CCOCC2)c1 [KU55933] (first compound 10 µM, partner dose 5 µM) has a cell count of 10.6%. `NC(=O)c1ccc(N(C(N)=O)c2c(F)cccc2F)nc1-c1ccc(F)cc1F` + C[C@@H]1CCN(C(=O)CC#N)C[C@@H]1N(C)c1ncnc2[nH]ccc12 [CP690550] (first compound 2 µM, partner dose 5 µM) showed a cell count of 109%. `CCCCCCCCc1ccc(CCC(N)(CO)CO)cc1` [fingolimod] + Cn1cncc1[C@@](N)(c1ccc(Cl)cc1)c1ccc2c(c1)c(-c1cccc(Cl)c1)cc(=O)n2C [tipifarnib] (first compound 10 µM, partner dose 0.05 µM) was tested, and the cell count was 6.64%. For `Cc1ccc(NC(=O)c2cccc(N(C)C)c2)cc1NC(=O)c1ccc(O)cc1` + CO[C@@H]1[C@H](N(C)C(=O)c2ccccc2)C[C@H]2O[C@]1(C)n1c3ccccc3c3c4c(c5c6ccccc6n2c5c31)C(=O)NC4 [Midostaurin] (first compound 10 µM, partner dose 0.4 µM), the cell count was 86.9%. For `NC(=O)c1ccc(N(C(N)=O)c2c(F)cccc2F)nc1-c1ccc(F)cc1F` + COc1cc2c(Oc3ccc4[nH]c(C)cc4c3F)ncnc2cc1OCCCN1CCCC1 [cediranib] (first compound 2 µM, partner dose 2 µM), the cell count was 96.1%. Compound `CC(C)(C)c1cnc(CSc2cnc(NC(=O)C3CCNCC3)s2)o1` + O=C(O)c1ccc(-c2c[nH]c3ncc(-c4ccccc4)cc23)cc1C1CCCC1 [GSK650394] (first compound 0.05 µM, partner dose 0.8 µM) has a cell count of 79.5%. `CCCCCCCCc1ccc(CCC(N)(CO)CO)cc1` [fingolimod] + CN(c1ncccc1CNc1nc(Nc2ccc3c(c2)CC(=O)N3)ncc1C(F)(F)F)S(C)(=O)=O [PF562271] (first compound 10 µM, partner dose 0.4 µM) gave a cell count of 8.07%. Work on `NC(=O)c1ccc(N(C(N)=O)c2c(F)cccc2F)nc1-c1ccc(F)cc1F` + CC(C)CCN1c2nc(Nc3cc(F)c(O)c(F)c3)ncc2N(C)C(=O)C1C [BID1870] (first compound 2 µM, partner dose 1 µM) yielded a cell count of 88.8%.
